# From PubChem BioAssay AID1240 (Sanford-Burnham Center for Chemical Genomics, 2008)
# The campaign covered roughly 50,000 compounds. About 800 (1.6%) showed an effect of 50% or more. The list shows a part of the results.
# Target: Bcl-2-like protein 10 (Homo sapiens) (UniProt Q9HD36)
# Assay: Phenotype converters, Bcl-B/TR3 peptide binding displacement, primary biochemical FP (AID 1240);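 further: 0% = Bcl-B with tracer peptide and DMSO and 100% = tracer peptide lacking Bcl-B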
# Settings: GST-Bcl-B / FITC-TR3 peptide fluorescence polarization; stronger effect = higher value; compound at 3.75 mg/L
# Chain of UniProt Q9HD36 (Q9HD36 whole entry, looked up): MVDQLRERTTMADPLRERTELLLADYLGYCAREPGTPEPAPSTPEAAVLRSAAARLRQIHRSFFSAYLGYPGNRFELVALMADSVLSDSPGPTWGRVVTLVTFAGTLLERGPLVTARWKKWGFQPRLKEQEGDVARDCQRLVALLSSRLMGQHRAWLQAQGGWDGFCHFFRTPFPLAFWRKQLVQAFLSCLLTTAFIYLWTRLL
row,Structure (SMILES),displacement
1,CCN(CC)CCSc1nc2sc3c(c2c(=O)n1-c1ccc(OC)cc1)CCCC3,-21%
2,Nc1ccc(C(=O)c2ccc(N)c(N)c2)cc1N,1%
3,O=C(NCCCNc1ccc([N+](=O)[O-])cc1)C(c1ccccc1)c1ccccc1,1.1%
4,CC(C)c1cc(NS(=O)(=O)c2ccccc2[N+](=O)[O-])cc(C(C)C)c1O,15.1%
5,CCCCCCCCn1c(C)cc(=O)[nH]c1=O,16.6%
6,COC(=O)C1=C(O)/C(=C\c2ccc([N+](=O)[O-])cc2)N=C1C,-1%
7,Cc1cc2nn(-c3ccccc3)nc2cc1NC(=O)c1ccc(Br)cc1,8.5%
8,COc1ccc(-c2nnc(Nc3ccc(C)cc3)c3ccccc23)cc1,3.4%
9,CCn1c2ccccc2c2nnc(N/N=C/c3cccc(I)c3)nc21,-4.2%
10,Cc1ccc(NC(=O)c2ccc(I)cc2)cc1C,6.4%
11,Cc1ccc(-n2c(C)cc(/C=N/NC(=O)CN3CCOCC3)c2C)cc1C,-8.4%
12,CCCOc1ccc(N2C(=O)CC(N(CCc3ccc(OC)c(OC)c3)C(C)=O)C2=O)cc1 (stereo not given),0.6%
13,COc1cc(C(=O)NN2C(=O)/C(=C/c3ccccc3)SC2=S)ccc1O,-12.9%
14,CCOC(=O)c1ccc(NC2=C(N3CCCCC3)C(=O)c3ccccc3C2=O)cc1,10.2%
15,CCOC(=O)C1=C(C)N=c2s/c(=C\c3cccnc3)c(=O)n2C1c1ccc(OC)cc1 (stereo not given),6.5%
16,COc1ccc(C2CC(=O)C3=C(C2)Nc2ccccc2NC3c2cccc(F)c2)cc1OC (stereo not given),-1.9%
17,CC(C)(C)CC(C)(C)NC(=O)CSc1nnc(-c2ccco2)n1-c1ccccc1,-6%
18,O=[N+]([O-])c1ccc2c(c1)S(=O)(=O)NC2=NCCCN1CCOCC1,-6.5%
19,CCCc1nnc(NC(=O)COC(=O)/C=C/c2ccco2)s1,-6%
20,CCCCCOC(=O)C1=C(C)NC(=O)NC1c1ccc(Br)cc1 (stereo not given),8.5%
21,Cc1ccc(C2OC(=O)c3ccccc32)cc1 (stereo not given),11.4%
22,COc1cc(C2NC(=O)NC(C)=C2C(=O)Nc2ccc(C)cc2)cc(OC)c1OC (stereo not given),5.9%
23,CCOC(=O)c1sc(NC(=O)c2cncc(Br)c2)c(C(=O)OCC)c1C,9.2%
24,CN1C(=O)/C(=C\c2ccc3c(c2)OCO3)OC1=S,-4.6%

row,Structure (SMILES),displacement
1,N=C1S/C(=C\c2ccc(-c3ccc(F)cc3)o2)C(=O)N1c1ccc2c(c1)OCO2,11.6%
2,O=C(CN(c1cccc([N+](=O)[O-])c1)S(=O)(=O)c1ccccc1)NCc1ccco1,-1.1%
3,CC1(C)CC(NC(=O)c2ccccc2Cl)CC(C)(C)N1,-9.3%
4,COc1ccc2nc(NC(=S)NC(=O)c3ccc(Cl)cc3)sc2c1,11.2%
5,CC1(C)C/C(=N\N)c2cc(=O)[nH]nc2C1,3.7%
6,Cc1cc(-n2c(C)cc(C=O)c2C)ccc1I,-15.5%
7,O=C(NCCCn1ccnc1)c1cnn2c(C(F)(F)F)cc(-c3ccc(Br)cc3)nc12,11.8%
8,Cc1ccc(S(=O)(=O)NCCOc2ccc(Cl)cc2)cc1[N+](=O)[O-],14.6%
9,CC(C)=C1C(=O)NN(c2cccc(Br)c2)C1=O,29%
10,CCOc1ccc(-c2cc(C)n3nc(C(=O)Nc4cccc(O)c4)cc3n2)cc1,2.3%
11,COc1ccc(CC(=O)NC(C)C2COc3ccccc3O2)cc1OC (stereo not given),-4.2%
12,COc1cccc(OC)c1C(=O)NCc1ccc(S(N)(=O)=O)cc1,17.8%
13,CCc1ccc(NC(=O)c2cnccn2)cc1,5.9%
14,COc1ccccc1C1CC(=O)Nc2ccc3ccccc3c21 (stereo not given),-4.1%
15,COc1cccc(OC)c1C(=O)NNC(=O)c1ccc(Cl)cc1,-9.4%
16,O=S(=O)(Nc1ccc2c(c1)OCO2)c1cc(Cl)ccc1Cl,5%
17,COC(=O)c1ccccc1NC(=O)c1ccc(CN(c2ccccc2)S(C)(=O)=O)cc1,3%
18,COc1ccccc1CNCc1cccc([N+](=O)[O-])c1,-4.6%
19,Clc1ccc(Sc2c(-c3ccccc3)nc3sccn23)cc1,-39.1%
20,Cc1ccc(C(=O)O)cc1N1C(=O)c2ccc(S(=O)(=O)c3ccc(C(=O)O)cc3)cc2C1=O,17.1%
21,O=C(O)CC1NC(=S)N(c2ccccc2)C1=O (stereo not given),8.8%
22,CC(=O)Oc1ccc(/C(C)=N/N2CCN(Cc3cccc4ccccc34)CC2)cc1,15.4%
23,NC(=O)c1c(NC(=O)CN2C(=O)c3ccccc3C2=O)sc2c1CCC2,-4.8%
24,CCc1ccc(S(=O)(=O)Nc2ccccc2OC)cc1,13.8%

row,Structure (SMILES),displacement
1,Cc1ccc(NC(=O)C(C)(C)C)cc1[N+](=O)[O-],-1.9%
2,CN1CCN(NC(=S)Nc2cccc(Cl)c2)CC1,1.8%
3,O=C(Nc1ccc2nn(-c3ccc(Cl)cc3)nc2c1)c1ccc([N+](=O)[O-])cc1,15.7%
4,CCC(=O)N1c2ccccc2C(N(C(=O)c2ccccc2)c2cccc([N+](=O)[O-])c2)CC1C (stereo not given),-0.7%
5,Cc1ccc([N+](=O)[O-])c2c1NCC1CC=CC21 (stereo not given),5.9%
6,O=C(O)CCCCCN=C1CCCc2ccccc2N1,10.9%
7,O=c1c(N=Nc2ccc(F)cc2)c(-c2ccccc2)[nH]n1-c1nc(-c2ccccc2)cs1,-3.5%
8,CCC1=NN(C(=O)CCc2ccccc2)C(O)(c2ccncc2)C1 (stereo not given),-2.7%
9,CN1C(=O)/C(=C\c2ccc(OCCOc3ccc([N+](=O)[O-])cc3)cc2)SC1=S,-0.4%
10,O=C(COc1ccccc1)NCCCNC(=O)COc1ccccc1,-6.6%
11,CCOc1cc(/C=C2\SC(=S)N(C3CCCCC3)C2=O)ccc1O,-19.4%
12,CCOC(=O)c1c(NC(=O)CNCc2ccccc2)sc2c1CCCCC2,-3.3%
13,CCCCCC(=O)N/N=C(/C)c1cccs1,-8.9%
14,Cc1cc(C)c(Cc2cc([N+](=O)[O-])ccc2C)c(C)c1,8.8%
15,Cc1cc2nc(-c3cccc(NC(=S)NC(=O)c4ccco4)c3)oc2cc1C,6.8%
16,COc1cc(C(=O)N2CCc3ccccc3C2)cc(OC)c1OC,10%
17,O=C(COc1ccccc1)N/N=C/c1ccccc1Cl,6.3%
18,COC(=O)C1=C(C)N=C2SCCC(=O)N2C1c1cccs1 (stereo not given),-5.1%
19,O=C1c2ccccc2NC(c2ccc(Br)cc2)N1Cc1ccco1 (stereo not given),10.1%
20,O=[N+]([O-])c1cccc(N/N=C/c2ccc(O)cc2O)c1,-10%
21,O=C(Nc1ccc2oc(-c3cccc4c(Br)cccc34)nc2c1)c1ccccc1[N+](=O)[O-],10.3%
22,O=S(=O)(Nc1ccnc2ccccc12)c1ccccc1,13.1%
